Data published in PubChem BioAssay AID1347417 (National Center for Advancing Translational Sciences (NCATS), 2020).
Screen size: about 120,000 compounds; about 5,300 (4.4%) were called active. The shares of active, inactive and inconclusive entries below differ from those in the screen. Calls come from the whole dose curve; as a rule, active = well fitted inhibition curve with a large enough effect; inconclusive = small, poorly fitted or top-dose-only effect; inactive = no such curve, though single readings can be large or run the other way. Potencies of inconclusive entries are doubtful fits and often do not repeat.

Assay: qHTS Primary assay for Inhibitors of Plasmodium falciparum Dd2 growth in vitro; note: nearly all actives have a fitted effect of over 65% in size;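 for activity, negative = inhibition: plate controls were DMSO vehicle for no effect and reference drug for full effect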
Settings: P. falciparum Dd2 growth, SYBR Green, 72 h; activity, negative = inhibition: at 28.9 µM (top of the series) unless noted; series mostly up to 28.9 µM
Procedure, shortened: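 Readout: SYBR Green fluorescence, 485 nm excitation, 535 nm emission, after ~16 h lysis at 37C. Before that, Dd2-infected red cells (2.5% hematocrit) grew 72 h with compound, 29 uM top final concentration.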
Potency is the fitted concentration of half-maximal effect; tags give direction and shape of the fitted curve.

SMILES | Potency | activity, negative = inhibition
COCCn1c(=O)c2c(n1Cc1ccccc1)CN(C(=O)CCc1ccccn1)CC2 | inconclusive: 1.12 µM [inhibitor, partial curve, poor fit] | –
CC(C)CNc1ccc2nnc(-c3ccc(F)cn3)n2n1 | inactive | –
Cc1noc(C)c1C(=O)N1CCN(C2CCNCC2)C(=O)C1 | inactive | –
Cn1c(=O)c2sccc2n2c(CCC(=O)Nc3ccc(F)cc3)nnc12 | inconclusive: 20 µM [inhibitor, partial curve, poor fit] | –
O=C(Cc1ccc2c(c1)OCO2)N1CCOCC2(CN(Cc3ccccc3)C2)C1 | inconclusive: 1.26 µM [inhibitor, partial curve] | –
Cc1cc(C)cc(C(=O)NC(Cc2ccccc2)C(=O)N2CCN(c3ccccn3)CC2)c1 (stereo unspecified) | inconclusive: 10 µM [inhibitor, single point] | –
Cc1ncsc1C1N(C2CCN(Cc3cn(C)c4ccccc34)CC2)C(=O)C12CCCC2 (stereo unspecified) | inconclusive: 2.82 µM [inhibitor, single point] | –
COc1cc(-c2ccnc3nc(CCc4ccccc4)nn23)cc(OC)c1OC | active: 11.2 µM | –
CCc1nc2c(c(-c3ccc(Cl)cc3)n1)CCN(Cc1ccc(C#N)cc1)CC2 | inconclusive: 2.24 µM [inhibitor, partial curve, poor fit] | –
Cc1ccc(C(=O)N2CCC(n3c(C)cnc3-c3ccccc3)CC2)cn1 | inactive | –
COc1ccc(Cc2nnc(C(=O)NCCCN3CCN(c4ccccc4F)CC3)o2)cc1OC | inconclusive: 14.1 µM [inhibitor, single point] | –
Cc1ccc(CN(Cc2ccco2)C(=O)c2cccc(C)c2)cc1 | inconclusive: 17.8 µM [inhibitor, single point] | –
O=C(CN1C(=O)C2CCCCN2c2ccc(C(=O)N3CCCC3)cc21)NCc1ccccc1F (stereo unspecified) | inconclusive: 10 µM [inhibitor, partial curve, poor fit] | –
CC(C)C(=O)N1CCC2(CC1)OC(=O)N(Cc1ccccc1C#N)C2(C)c1ccccc1 (stereo unspecified) | inconclusive: 0.562 µM [inhibitor, partial curve, poor fit] | –
CN(c1ccccc1)C(CNS(=O)(=O)c1ccccc1)c1ccccc1 (stereo unspecified) | inconclusive: 17.8 µM [inhibitor, single point] | –
CCOc1ccc(C(=O)NC2CCN(c3cc(-c4ccc(F)cc4)[nH]n3)CC2)cc1OCC | inconclusive: 1 µM [inhibitor, partial curve, poor fit] | –
Fc1ccc(-c2cc(CC3(NCc4cccnc4)COC3)no2)cc1 | inactive | –
Cc1ccc(N2C(=O)CS(=O)(=O)C23C(=O)N(Cc2ccccc2F)c2ccccc23)cc1Cl (stereo unspecified) | inconclusive: 10 µM [inhibitor, single point] | –
CC(C)CC(=O)NC(C(=O)N1CCCCC1)C1CCN(C(=O)c2ccc(Cl)cc2)CC1 (stereo unspecified) | inconclusive: 2.24 µM [inhibitor, partial curve] | –
CN1C[C@H](O)C[C@H]1c1nc(-c2ccc3c(c2)OCO3)no1 | inactive | –
COC1CCC12CCN(C(=O)c1ccncc1)CC2 (stereo unspecified) | inactive | –
CCOc1cccc(CNC(=O)Cn2c(C)ccc(NC(=O)NC)c2=O)c1 | inactive | –

SMILES | Potency | activity, negative = inhibition
COc1ccc(CN2CCC3(C2)C(=NC2CCCCC2)NC(=O)N3c2cc(F)cc(F)c2)cc1 (stereo unspecified) | inconclusive: 7.08 µM [inhibitor, partial curve, poor fit] | –
Cc1cccc(OCC(=O)NCc2nnc3ccc(-c4ccc(F)cc4)nn23)c1 | inactive | –
CC[C@H]1CN2CC[C@H]1C[C@@H]2CNS(=O)(=O)c1ccc(OC)cc1 | inconclusive: 4.47 µM [inhibitor, full curve, poor fit] | –
Cc1ccc(-c2nnc3ccc(NC4CCC4)nn23)nc1 | inconclusive: 31.6 µM [inhibitor, single point] | –
COc1ccc(Cn2c(C(=O)O)c(CNCCc3ccccc3Cl)c3ccc(C)cc32)cc1 | inconclusive: 10 µM [inhibitor, single point] | –
Cc1cc(C)cc(OCC(=O)Nc2cccc(-c3nc4ccccc4[nH]3)c2)c1 | inconclusive: 10 µM [inhibitor, partial curve, poor fit] | –
O=C(Cn1c(=O)n(-c2ccc(F)cc2)c(=O)c2sccc21)Nc1cccc(C(F)(F)F)c1 | inconclusive: 17.8 µM [inhibitor, single point] | –
O=C1N(C2CCN(Cc3ccncc3F)CC2)C(c2ccncc2)C12CCCCC2 (stereo unspecified) | inactive | –
O=C(NCc1ccccc1)C1CC(c2ccccc2)CN(C(=O)c2ccccc2F)C1 (stereo unspecified) | inconclusive: 0.251 µM [inhibitor, full curve] | –
CCOC(=O)c1cc2c(=O)n3ccccc3nc2n(Cc2ccco2)c1=NC(=O)c1ccccc1OC | inconclusive: 7.94 µM [inhibitor, partial curve, poor fit] | –
Cc1c2cnn(CC(=O)Nc3ccc(F)cc3F)c(=O)c2c(C)n1Cc1cccc(Cl)c1 | inconclusive: 8.91 µM [inhibitor, partial curve, poor fit] | –
COc1cc2c(cc1O)NC(=O)CC2c1cn[nH]c1-c1cc(C)ccc1C (stereo unspecified) | inconclusive: 8.91 µM [inhibitor, partial curve, poor fit] | –
COc1ccc(N2CCN(C(=O)CCc3conc3-c3ccc(F)cc3)CC2)cc1 | inactive | –
CCN1CCN(C(=O)c2ccc3nccn3c2)CC1 | inactive | –
COc1ccccc1N1CCN(C[C@@H]2C=C(C)[C@H](Cc3nnc(-c4cncn4C)o3)C[C@H]2C(C)C)CC1 | inconclusive: 1.41 µM [inhibitor, full curve, poor fit] | –
CCOc1ccc2nc(N3CCCC(C(=O)NCCc4ccc(SC)cc4)C3)sc2c1 (stereo unspecified) | – | inconclusive: -155% [inhibitor] [at 5.79 µM]
CCOc1ccc(NC(=O)Cn2cc(C(=O)c3ccc(C)c(C)c3)c(=O)c3cc(F)ccc32)cc1 | inactive | –
COc1cncc(Nc2cnc3ccc(-c4ccccc4)nn23)c1 | inconclusive: 1.12 µM [inhibitor, full curve, poor fit] | –
O=C(NCc1cccs1)c1nc(-c2cccc(C(F)(F)F)c2)c2ccccn12 | inconclusive: 17.8 µM [inhibitor, single point] | –
O=C1c2ccccc2CN1C1CCN([S+](=O)([O-])c2cccc(C(F)(F)F)c2)CC1 | inactive | –
Cc1cc(NC(=O)Cn2ccn3nc4c(c3c2=O)CCCC4)no1 | inactive | –
O=C1N[C@@H]2CCN(C(=O)COc3ccccc3)[C@@H]2C(=O)N1c1ccc(Oc2ccccc2)cc1 | inactive | –

SMILES | Potency | activity, negative = inhibition
CCCOCCNC(=O)c1c(C)noc1-c1ccc(OC)cc1 | inactive | –
CCN1C(=O)CN(C(=O)c2cccc(C)c2)CC12CCOCC2 | inconclusive: 17.8 µM [inhibitor, single point] | –
COc1ccc(C(=O)NCCC2CCN(C(=O)Nc3ccc(F)cc3)CC2)cc1OC | inactive | –
CCN1CCN(CC(O)COc2cccc(CNCc3cnn(CC)c3)c2)CC1 (stereo unspecified) | inactive | –
CCOc1ccc(-c2c(C)nn3c(C)c(C(=O)NCC(C)c4ccccc4)cnc23)cc1OCC (stereo unspecified) | inconclusive: 12.6 µM [inhibitor, single point] | –
O=C(COc1ccccc1)N1CCCC(n2cc(-c3nc(C4CC4)no3)nn2)C1 (stereo unspecified) | inconclusive: 0.282 µM [inhibitor, full curve] | –
Fc1c(F)c(F)c(CN2CCCC3(CCNC3)C2)c(F)c1F (stereo unspecified) | inconclusive: 7.94 µM [inhibitor, partial curve] | –
COc1cccc([C@@H]2CN(C(=O)Cc3ccc(F)cc3)C[C@H]2C(=O)O)c1OC | inactive | –
O=C(NC[C@H]1O[C@@H](CC(=O)N2CCN(c3ccccc3)CC2)[C@H](O)[C@@H]1O)Nc1cccc(F)c1 | inactive | –
COc1cccc(S(=O)(=O)N2CCn3c(nnc3-c3ccncc3)C2)c1 | inactive | –
CCc1cccc(C)c1Nc1c(-c2ccc(N3CCOCC3)cc2)nc2ncccn12 | inconclusive: 11.2 µM [inhibitor, single point] | –
CC(=O)NC1(C)CCN(Cc2ccc(-c3ccccc3Oc3ccccc3)cc2)C1 (stereo unspecified) | active: 7.08 µM | –
COc1ccc(CCC(=O)N2CCC(Cc3nc(-c4ccc(OC)cc4)no3)CC2)cc1 | inconclusive: 11.2 µM [inhibitor, single point] | –
CN(CCc1noc(C2CN(Cc3cc(Cl)ccc3F)C2)n1)S(C)(=O)=O | inactive | –
CN1CCCCCCN(C(=O)CCC2CCCC2)[C@H]2CCC[C@H]2C1=O | inconclusive: 7.08 µM [inhibitor, partial curve, poor fit] | –
CC1=C(C(=O)NC2CC(=O)N(Cc3cccc4ccccc34)C2)OCCO1 (stereo unspecified) | inactive | –
Cc1noc(-c2ccc(OC(F)(F)F)cc2)c1C(=O)NCc1ccsc1 | inconclusive: 5.01 µM [inhibitor, partial curve, poor fit] | –
Cc1ccc(-n2nc(CO)c(C(=O)NCCc3ccccc3)n2)cc1C | inconclusive: 1 µM [inhibitor, single point] | –
CCc1ccc(N2C(=O)CS(=O)(=O)C23C(=O)N(Cc2ccccc2)c2ccccc23)cc1 (stereo unspecified) | inconclusive: 17.8 µM [inhibitor, single point] | –
COc1cc(-c2noc(-c3nnn(-c4ccc(Cl)cc4)c3C)n2)cc(OC)c1OC | inactive | –
COc1ccc(CNC(=O)[C@@H](C)C2CC[C@@]3(C)CC[C@H](NC(=O)c4ccc(C#N)cc4)[C@@H](C)[C@@H]3[C@H]2O)cc1 (stereo partly specified) | inconclusive: 2.51 µM [inhibitor, single point] | –
c1ccc(CCc2nc3nccc(-c4ccc5c(c4)OCCCO5)n3n2)cc1 | inconclusive: 1.41 µM [inhibitor, full curve, poor fit] | –
